The values below come from publication PMC5836133.

Some of the results follow. At the low end of the ranking, values are background and their order means little.

The test system of this experiment is T1, GST-NbGlk1(82-244).
T1 sequence: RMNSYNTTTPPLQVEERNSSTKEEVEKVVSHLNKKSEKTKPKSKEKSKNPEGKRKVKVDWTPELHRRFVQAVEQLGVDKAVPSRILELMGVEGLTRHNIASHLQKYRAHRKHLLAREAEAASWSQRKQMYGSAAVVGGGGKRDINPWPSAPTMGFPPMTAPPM
Put plainly: protein-binding microarray.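 Further: rank-based score ranging −0.5 to +0.5 with E above 0.45 taken as significant binding.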 The following applies: NbGlk1 is a Golden2-like transcription factor of Nicotiana benthamiana; high values mean tight binding; most listed sequences are background and not binding sites; double strand, one strand shown.
In turn, AGCACGAA came in with a binding signal of 0.0207 E-score.

Turning to AGCCGACC, the binding signal was -0.231 E-score.

Consider AGACACTC, for which the binding signal was -0.174 E-score. Next, ATAGAGCG: -0.129 E-score; AGGATCCC: 0.322 E-score; ATTATTAA: 0.205 E-score. The sequence ACCATCCT registered a binding signal of -0.178 E-score.

ATATGCCA came in with a binding signal of 0.156 E-score. Turning to ATGAAAAG, the binding signal was determined as 0.125 E-score.

In the case of AAAATGTT, the binding signal is 0.0874 E-score. In turn, ATCTTGAA returned a binding signal of 0.286 E-score.

Regarding ACTCAATA, the binding signal was 0.112 E-score.

As for ACGTTTAA, the binding signal was -0.0543 E-score. Next, ACTAGTGA: -0.0419 E-score; AACCGTAA: 0.109 E-score. Next, CACTGACA: -0.135 E-score; ATTCGAGA: 0.204 E-score. For the sequence AGATCCAG, the binding signal is 0.261 E-score. Next, CAGCCGCG: -0.139 E-score; ACGCTTAA: -0.132 E-score; AAGGGTCC: -0.262 E-score. Next, AGCAGCGG: -0.262 E-score.

Sequence ATAAACAG had a binding signal of -0.048 E-score.

For ATCGAATC, the binding signal amounted to 0.354 E-score. As for AGTAAAGA, the binding signal came out at 0.0222 E-score. Next, AACCCAGA: 0.129 E-score. Next, AACATACC: -0.0214 E-score; ACGAAATA: 0.246 E-score; AAGTTTTG: -0.00715 E-score. Next, ATAGAAGC: -0.129 E-score; AGAACTCC: -0.256 E-score; AGGAACCC: -0.213 E-score. For the sequence AGCTCCTA, the binding signal was -0.154 E-score. Next, ACTGTCAC: -0.162 E-score. Next, ATTCGATC: 0.207 E-score; ATTGTAGA: 0.15 E-score; AGACTATA: 0.0501 E-score. Next, AAACCACG: -0.0506 E-score. AGTATTGG gave a binding signal of -0.119 E-score. Next, ATTCGTTC: 0.137 E-score; CACGTAAG: 0.104 E-score. Next, ATTCTACG: 0.188 E-score; ACATGGGT: -0.171 E-score.

ACAGACGT returned a binding signal of -0.0765 E-score. Next, AACGCTAA: 0.0407 E-score; ACAAGCCA: -0.229 E-score; AATCCTAC: 0.343 E-score.

Turning to AGTTTGAA, the binding signal was -0.0387 E-score. Next, AAACAGCC: -0.201 E-score. Next, AGCATTAG: -0.111 E-score. In turn, ATTGCCGG registered a binding signal of 0.005 E-score. In turn, ATATTGCA showed a binding signal of 0.225 E-score.

Regarding ACAGATTG, the binding signal came out at 0.359 E-score. Next, ATCTGCCC: 0.218 E-score. On to CAATTAGG, for which the binding signal was 0.0775 E-score. Next, ATCTACCA: 0.253 E-score; AGGGGCAT: -0.158 E-score; ACCCGTTA: -0.144 E-score. Next, ATGGACGA: -0.109 E-score. Next, ATGCATGC: -0.224 E-score; AGCTGTCG: -0.0742 E-score. In the case of AAGCCAGT, the binding signal was -0.0326 E-score.

For the sequence AAGCAATT, the binding signal stood at 0.108 E-score.

Sequence AGATGGAG displayed a binding signal of -0.117 E-score.

AGTCCACT displayed a binding signal of -0.179 E-score. Next, CACATCTG: -0.0699 E-score; ATGAGAGG: -0.189 E-score. Next, AACGGCCC: -0.253 E-score; AGTCTTAA: -0.161 E-score; ACAAACAT: 0.129 E-score. Next, AGGCGGAT: 0.206 E-score.

Consider AGGCGGCG, for which the binding signal was -0.219 E-score. Next, AAGTCTCT: -0.189 E-score. CAGCCGGG had a binding signal of -0.178 E-score. Next, AAGGTAAT: 0.217 E-score.

In turn, AGTTGGCA came in with a binding signal of -0.136 E-score. The sequence ATTTTCTA came in with a binding signal of 0.373 E-score. Next, AGGGAAGG: -0.322 E-score; ACATATTC: 0.133 E-score; AGCGAGTA: 0.0419 E-score.

In the case of CAGAGAGC, the binding signal was -0.273 E-score.

For AGCTCACC, the binding signal was -0.199 E-score. Next, AAACTTCT: -0.00267 E-score; AGGGATGC: -0.218 E-score. Next, AAAGAGAC: -0.241 E-score; AGTCTGCG: -0.226 E-score. Next, ACGGAGTA: 0.0215 E-score; ATGGTGCG: -0.0961 E-score. Turning to ATACTAAG, the binding signal was -0.00119 E-score. Next, CACGCTGA: -0.0321 E-score. Next, ACCTTAAT: 0.0597 E-score; AACGGATT: 0.392 E-score.

The sequence AAGCTGGC showed a binding signal of -0.269 E-score.

On to CAAGCTTG, for which the binding signal is -0.212 E-score.

As to AGAACAAT, the binding signal was 0.205 E-score. AACATCTA registered a binding signal of 0.0998 E-score. AGAGGAAT showed a binding signal of 0.21 E-score. The sequence AGGGAAGA came in with a binding signal of -0.131 E-score.

Sequence AGGTATCG came in with a binding signal of 0.0281 E-score. Next, AATGGCCT: -0.114 E-score. Next, CACCACAA: 0.112 E-score; AGACTCTG: -0.105 E-score. Next, AGAGACTA: -0.12 E-score. In turn, AATAAGTG displayed a binding signal of 0.0355 E-score. On to ACTCGATA, for which the binding signal came out at 0.093 E-score. Next, AATTGCTA: 0.194 E-score; AAGTAACT: -0.113 E-score; CAATATGG: 0.142 E-score.

On to ATTACTGA, for which the binding signal amounted to 0.149 E-score. CACCCCCA: the binding signal was -0.186 E-score. Next, AAATATAA: 0.208 E-score; AAAGGAGT: 0.00548 E-score. Next, AAGAACGC: -0.137 E-score; AATGCTGT: 0.00548 E-score. Next, ATGGACGG: -0.102 E-score. In turn, CAACCCAA returned a binding signal of -0.00184 E-score. The sequence ACACACCC showed a binding signal of -0.161 E-score. Next, AGAAAATG: 0.185 E-score. Next, ACCTGGTA: -0.214 E-score; ACACCTCG: -0.0851 E-score; ATCCGCGA: 0.316 E-score. Next, AGCTTACC: -0.129 E-score; AAGGTAGC: -0.233 E-score. In the case of AATCTCGG, the binding signal was 0.429 E-score.

Regarding AAAAGCCC, the binding signal was -0.223 E-score. Next, ATGCATTG: -0.016 E-score; AATTGCAA: 0.132 E-score. Next, ATTACAAA: 0.302 E-score. Next, CAATCCTA: 0.288 E-score; ACCTGCAC: -0.121 E-score; ACTCAGAG: -0.11 E-score. Sequence ACCCTCGT yielded a binding signal of -0.0628 E-score.

The sequence ACTGCGGA came in with a binding signal of -0.0687 E-score. The sequence CAATTGGG gave a binding signal of 0.00496 E-score. Next, AGACGTAA: 0.0108 E-score; AACCAATA: -0.0751 E-score; CAAGGTGA: -0.196 E-score. Sequence AATGACTA yielded a binding signal of -0.017 E-score. Sequence AGGAAGAT gave a binding signal of 0.276 E-score. Next, ATAAATTC: 0.214 E-score; AGACGTGG: -0.236 E-score; AACTAAGG: -0.0967 E-score. Next, CACTATAG: -0.0506 E-score; AGTATAGC: -0.175 E-score; AATGGCAG: 0.00216 E-score. Next, AGGAAATG: -0.0795 E-score; ATACCGTC: -0.0102 E-score.

AGAGAACG showed a binding signal of -0.212 E-score.

On to ATCGCTGA, for which the binding signal worked out at 0.124 E-score. Next, AACCCTCT: -0.229 E-score. Next, AGTTGAGG: -0.181 E-score.

As for ACCAATGC, the binding signal was -0.192 E-score. Next, AACGAGAG: -0.00998 E-score; CAACCGTC: -0.0671 E-score. Next, ACATAATG: -0.0391 E-score; ACGACACT: -0.0924 E-score; AGTGTCCG: -0.168 E-score. Next, CAAATTAC: 0.275 E-score; ACTACGCC: -0.257 E-score. AGTGTTGC: the binding signal came to 0.0344 E-score.

On to AGTGTAGC, for which the binding signal was -0.0709 E-score. Next, ACTCCGAG: -0.115 E-score. On to AATTGGCG, for which the binding signal is 0.111 E-score. Next, CAGACTTC: -0.216 E-score; ATTGCTGC: -0.0186 E-score; AACAGTGG: 0.00865 E-score. AGGGACCC had a binding signal of -0.418 E-score. In turn, ATTGTATA displayed a binding signal of 0.192 E-score.

The sequence AGACGTGA registered a binding signal of -0.0897 E-score. Next, AATCTTCT: 0.41 E-score; AAGCAACC: -0.266 E-score. Next, AATCGCAT: 0.274 E-score.
